Experimental data taken from PubChem BioAssay AID485281 (National Center for Advancing Translational Sciences (NCATS), 2010).
“And” between values parts separate entries of the source, which are not always exact repeats. Identical values can stand only once. In all, about 350,000 compounds went through this assay and about 260 (0.074%) were called active. This list was built around the results that the source calls inconclusive (neither active nor inactive); the mix of calls is not that of the screen. Calls come from the whole dose curve; as a rule, active = well fitted inhibition curve with a large enough effect; inconclusive = small, poorly fitted or top-dose-only effect; inactive = no such curve, though single readings can be large or run the other way. Where the call is inconclusive, the potency comes from a doubtful curve fit.
Note: nearly all actives have a fitted effect of over 20% in size.
Potency is the fitted concentration of half-maximal effect; tags give direction and shape of the fitted curve.

The compounds below were run against Ferritin light chain (Equus caballus) (UniProt P02791) (assay: qHTS Assay for Identification of Novel General Anesthetics). Details: apoferritin/1-aminoanthracene competitive binding, fluorescence; series mostly up to 77.5 µM.
Chain of UniProt P02791 (P02791 whole entry, looked up): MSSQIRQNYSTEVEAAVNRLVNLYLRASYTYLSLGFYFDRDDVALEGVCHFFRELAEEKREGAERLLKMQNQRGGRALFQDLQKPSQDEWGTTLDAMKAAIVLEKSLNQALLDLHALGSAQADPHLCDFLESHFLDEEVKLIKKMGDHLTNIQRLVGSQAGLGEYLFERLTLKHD
In short: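 In PBS, apoferritin at 10 uM is loaded with 1-AMA from a 50% saturated solution. After 10 min of compound exposure at ambient temperature, reduced 535 nm fluorescence indicates probe displacement.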
`O=C(NCC(=O)N(Cc1cccs1)C(C(=O)NC1CCCC1)c1ccco1)c1cccs1` (stereo not drawn) was tested, and the Potency was inconclusive: 35.5 µM [inhibitor, single point].
With `CC1=NOC(=O)/C1=C\c1ccc(-c2ccccc2Br)o1` the Potency was inconclusive: 12.6 µM [inhibitor, partial curve].
In the case of `CCc1nc(NCCCCCO)c2nnn(Cc3ccccc3F)c2n1`, the Potency is reported as inconclusive: 25.1 µM [inhibitor, partial curve].
In the case of `CCCCCCCOC(=O)c1nc(Cl)c(Cl)c(N)c1Cl`, the Potency is reported as inconclusive: 50.1 µM [inhibitor, single point].
With `O=C(CCc1nc2ccccc2c(=O)[nH]1)OCC(=O)N1CCc2ccccc21` the Potency was inconclusive: 15.8 µM [inhibitor, partial curve].
With `CCC(=O)O[C@H]1C(O[C@@H]2C(C)[C@H](O[C@H]3C[C@@](C)(OC)C(O)C(C)O3)C(C)C(=O)OC(CC)[C@@](C)(O)C(O)[C@H](C)C(=O)C(C)C[C@]2(C)O)OC(C)CC1N(C)C` (stereo partly drawn) the Potency was inconclusive: 25.1 µM [inhibitor, partial curve].
For `CCOc1ccc(CNS(=O)(=O)c2cc(CN3C(=O)c4cccnc4C3=O)ccc2OC)cc1`, the Potency was inconclusive: 25.1 µM [inhibitor, single point].
With `CSc1ccccc1OCc1cc(C(=O)NC2CCc3ccccc32)no1` (stereo not drawn) the Potency was inconclusive: 5.01 µM [inhibitor, full curve].
`Cc1ccc(C)c(NC(=O)CN(CCc2ccccc2)S(=O)(=O)c2ccccc2)c1` was tested, and the Potency was “inactive”.
In the case of `Cc1cccc(Cc2c(C)nc3nc(SCc4ccccc4C)nn3c2C)c1`, the Potency is reported as inconclusive: 2.82 µM [inhibitor, partial curve].
With `Cc1c(C(=O)N/N=C/c2ccc(-c3ccccc3[N+](=O)[O-])o2)sc(N)c1C#N` the Potency was inconclusive: 15.8 µM [inhibitor, partial curve].
With `CCCC(=O)NC(c1ccc(OC)cc1)c1ccc2cccnc2c1O` (stereo not drawn) the Potency was “inactive”.
With `CCC(C)(NC(=O)c1cccc(N2C(=O)CSC2c2ccccc2)c1)C(=O)Nc1ccccc1C` (stereo not drawn) the Potency was inconclusive: 28.2 µM [inhibitor, partial curve].
`Cc1c2ccccc2nc2c(F)c(NC(C)C)c(F)c(F)c12` was tested, and the Potency was “inactive”.
For `CCc1cc(C(=O)c2ccccc2OC)c(N)s1`, the Potency was inconclusive: 35.5 µM [inhibitor, partial curve].
`COc1cc([N+](=O)[O-])ccc1-c1ccc(/C=N\n2cnnc2)o1` was tested, and the Potency was “inactive”.
`CC(C)(C)c1ccc(C(=O)NC2CCN(Cc3ccccc3)CC2)cc1` was tested, and the Potency was “inactive”.
For `O=C(Nc1ccc(-c2cccc(F)c2)cc1)C1CCCN(Cc2ccccn2)C1` (stereo not drawn), the Potency was inconclusive: 28.2 µM [inhibitor, partial curve].
With `CC(=O)Nc1ccc(C2Nc3c(C)cc(C)cc3-c3cc(C)nn32)cc1` (stereo not drawn) the Potency was “inactive”.
In the case of `Cc1ccc(OCC(=O)Nc2nnc(C3CCCO3)s2)c(Br)c1` (stereo not drawn), the Potency is reported as “inactive”.
In the case of `CC(C)(C)CC(C)(C)c1ccc(OCCOCC[N+](C)(C)Cc2ccccc2)cc1`, the Potency is reported as inconclusive: 20 µM [inhibitor, single point] and inconclusive: 50.1 µM [inhibitor, single point].
With `Cc1ccc([C@H]2C(C#N)=C(N)Oc3cc(C)oc(=O)c32)o1` the Potency was “inactive”.
For `CCOc1ccc(S(=O)(=O)NCc2ccc3c(c2)OCO3)cc1`, the Potency was inconclusive: 44.7 µM [inhibitor, single point].
With `CC1CCCC(C)N1C(=O)COC(=O)c1nn(C)c(=O)c2ccccc12` (stereo not drawn) the Potency was inconclusive: 25.1 µM [inhibitor, partial curve].
With `Cc1cc(C)cc(N2C(=O)C3CC=CCC3C2=O)c1` (stereo not drawn) the Potency was inconclusive: 11.2 µM [inhibitor, full curve, poor fit].
For `CCCOc1cccc(-c2cc(-c3n[nH]c(=S)n3CC)c3ccccc3n2)c1`, the Potency was inconclusive: 35.5 µM [inhibitor, partial curve].
For `O=C(NCCC1=CCCCC1)c1cnsn1`, the Potency was inconclusive: 56.2 µM [inhibitor, single point].
For `N/C(Cc1ccc(Cl)c(Cl)c1)=N\OC(=O)c1cccs1`, the Potency was inconclusive: 31.6 µM [inhibitor, partial curve].
With `O=C(CSc1ccsc1[N+](=O)[O-])N1CCCCC1` the Potency was inconclusive: 25.1 µM [inhibitor, single point].
In the case of `Cc1ccc(C)c(NC(=O)NNC(=O)c2cc3occc3[nH]2)c1`, the Potency is reported as inconclusive: 44.7 µM [inhibitor, single point].
With `Cc1cc(C)cc(OCC(=O)NCC2(N(C)C)CCCCC2)c1` the Potency was “inactive”.
In the case of `Cc1ccc(S(=O)(=O)N2CCC(c3ccncc3)CC2)c(C)c1`, the Potency is reported as “inactive”.
With `CC(C)Cc1ccc(C(=O)NCc2ccc3c(c2)OCO3)o1` the Potency was inconclusive: 28.2 µM [inhibitor, partial curve].
With `O=C1C(Cl)=C(N2CCOCC2)C(=O)N1c1cccc(Cl)c1` the Potency was inconclusive: 35.5 µM [inhibitor, single point].
In the case of `CCOc1ccc(-c2csc(N)c2C(=O)OC)cc1`, the Potency is reported as inconclusive: 44.7 µM [inhibitor, single point].
`O=C(CCNS(=O)(=O)c1cccc2nsnc12)NCCC1=CCCCC1` was tested, and the Potency was “inactive”.
For `CCC(C(=O)Nc1cc(C(=O)Nc2cc(C)ccn2)ccc1Cl)c1ccccc1` (stereo not drawn), the Potency was inconclusive: 44.7 µM [inhibitor, single point].
For `CC1(C)C(=O)C2(CCCC2)C(=O)OC1c1ccco1` (stereo not drawn), the Potency was inconclusive: 31.6 µM [inhibitor, single point].
For `COc1ccc(C(=O)Nc2cccc(C(C)=O)c2)cc1OC`, the Potency was “inactive”.
`CCOc1ccc(NC(=O)Nc2cc(C(C)C)c(O)cc2C)cc1` was tested, and the Potency was “inactive”.
For `O=C(c1ccc(NS(=O)(=O)c2cccs2)cc1)N1CCN(c2ccccc2Cl)CC1`, the Potency was inconclusive: 31.6 µM [inhibitor, partial curve].
In the case of `Cc1cccc(C(=O)Nc2ccc(C(=O)N/N=C/c3ccc(C)o3)cc2)c1`, the Potency is reported as inconclusive: 35.5 µM [inhibitor, partial curve].
`COc1ccc(C2=NN(CC(=O)NCc3ccccc3Cl)C(=O)CC2)cc1` was tested, and the Potency was inconclusive: 31.6 µM [inhibitor, single point].
